This is one part of the list. Single values of this set are uncertain. Values with irradiation are relative to irradiated vehicle.
How the values were obtained:
A549-Dual [1] = experiment: NF-kB reporter (SEAP) activity, viability-corrected, relative to vehicle (fold change vs vehicle); higher = more activation of STING-IRF / NF-kB immune response reporter
A549-Dual [2] = experiment: ISRE reporter (Lucia luciferase) activity, viability-corrected, relative to vehicle (fold change vs vehicle); higher = more activation of STING-IRF / NF-kB immune response reporter
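For NF-kB reporter (SEAP) activity, viability-corrected, relative to vehicle in this document: viability correction based on the alamar blue assay, with concentrations leaving 10% survival or less dropped.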

Compound	NF-kB reporter (A549-Dual [1]; 0.1 µM, irradiation: 8 Gy/4 fr)	NF-kB reporter (A549-Dual [1]; 0.1 µM, irradiation: none)	NF-kB reporter (A549-Dual [1]; 0.3 µM, irradiation: 8 Gy/4 fr)	NF-kB reporter (A549-Dual [1]; 0.3 µM, irradiation: none)	NF-kB reporter (A549-Dual [1]; 1 µM, irradiation: 8 Gy/4 fr)	NF-kB reporter (A549-Dual [1]; 1 µM, irradiation: none)	NF-kB reporter (A549-Dual [1]; 3 µM, irradiation: 8 Gy/4 fr)	NF-kB reporter (A549-Dual [1]; 3 µM, irradiation: none)	NF-kB reporter (A549-Dual [1]; 10 µM, irradiation: 8 Gy/4 fr)	NF-kB reporter (A549-Dual [1]; 10 µM, irradiation: none)	ISRE reporter (A549-Dual [2]; 0.1 µM, irradiation: 8 Gy/4 fr)	ISRE reporter (A549-Dual [2]; 0.1 µM, irradiation: none)	ISRE reporter (A549-Dual [2]; 0.3 µM, irradiation: 8 Gy/4 fr)	ISRE reporter (A549-Dual [2]; 0.3 µM, irradiation: none)	ISRE reporter (A549-Dual [2]; 1 µM, irradiation: 8 Gy/4 fr)	ISRE reporter (A549-Dual [2]; 1 µM, irradiation: none)	ISRE reporter (A549-Dual [2]; 3 µM, irradiation: 8 Gy/4 fr)	ISRE reporter (A549-Dual [2]; 3 µM, irradiation: none)	ISRE reporter (A549-Dual [2]; 10 µM, irradiation: 8 Gy/4 fr)	ISRE reporter (A549-Dual [2]; 10 µM, irradiation: none)
COC(=O)CC(O)(CCC(C)(C)O)C(=O)OC1C(OC)=CC23CCCN2CCc2cc4c(cc2C13)OCO4 (stereo not given) [Harringtonine]	0.399	0.682	0.84	1.04	0.528	1.82	1.83	2.88	1.42	1.67	0.0362	0.11	0.0206	0.109	0.0125	0.122	0.048	0.167	0.0266	0.262
CN1CCC(C(=O)c2cccc(NC(=O)c3c(F)cc(F)cc3F)n2)CC1.CN1CCC(C(=O)c2cccc(NC(=O)c3c(F)cc(F)cc3F)n2)CC1.O=C(O)CCC(=O)O [Lasmiditan succinate]									0.559	0.773									0.565	0.612
CCC1(O)C(=O)OCc2c1cc1n(c2=O)Cc2cc3ccccc3nc2-1 (stereo not given) [Camptothecin]	1.02	1.69	1.22	3	1.34	2.65	2.11	4.31	2.65		1.3	7.37	1.41	10.1	1.47	7.9	2.53	12.9	2.01	
COc1ccc(C(=O)N2CCCC2=O)cc1 [Aniracetam]									0.699	0.822									0.78	0.76
O=C1C=C2C=CC3CC2(O1)C1CCCCN31 (stereo not given) [Securinine]									1.04	1.25									0.595	0.684
